First the molecules themselves.
B1: Q9UKT9 (peptide)
chain: FFCSVCGHCFTQKGNLLRHIKL
B2: Q9UKT9 (peptide)
chain: FDCPQCGAPFTQKGNLLRHIKL
B3: Q9UKT9 (peptide)
chain: FVCNVCGAEFTQKGNLLRHIKL
B4: Q9UKT9 (peptide)
chain: FRCPICGANFTQKGNLLRHIKL
B5: Q9UKT9 (peptide)
chain: FYCEVCGAPFTQKGNLLRHIKL
B6: Q9UKT9 (peptide)
chain: FYCNVCGADFTQKGNLLRHIKL
B7: Q9UKT9 (peptide)
chain: FACNQCGHCFTQKGNLLRHIKL
B8: Q9UKT9 (peptide)
chain: LHCPICGFSCTQKGNLLRHIKL
B9: Q9UKT9 (peptide)
chain: FHCEICGHTFTQKGNLLRHIKL
B10: Q9UKT9 (peptide)
chain: LVCNQCGFWCTQKGNLLRHIKL
B11: Q9UKT9 (peptide)
chain: FMCEQCGAWFTQKGNLLRHIKL
B12: Q9UKT9 (peptide)
chain: FFCPQCGAAFTQKGNLLRHIKL
B13: Q9UKT9 (peptide)
chain: FCCNQCGRYFTQKGNLLRHIKL
B14: Q9UKT9 (peptide)
chain: FWCNQCGAKFTQKGNLLRHIKL

The list shows a part of the results.
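Note: jurkat cells carrying a lentiviral library of mutant zinc finger degrons fused to EGFP plus mCherry, mCherry+ cells FACS sorted, degron abundance counted by next-generation sequencing.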

The assay addresses no compound (DMSO). Nature of the assay: log2 fold change of degron read counts, EGFP-low vs EGFP+ sorted cells; higher = lower degron-EGFP level without compound (poor expression or instability). The note with it: compound: DMSO control; 18 h.
B1: the “log2 fold change of degron read counts” value was 0.86.

In the case of B2, the “log2 fold change of degron read counts” value was -1.88. The same measure for B3: -2.02.

For B4, the “log2 fold change of degron read counts” value was -0.424. The same measure for B5: -0.813.

For the sequence B6, the “log2 fold change of degron read counts” value was -0.567. The same measure for B7: -0.0737; for B8: 0.696; for B9: -1.38. As to B10, the “log2 fold change of degron read counts” value was determined as 1.14. For B11 the value was -0.271. For B12 the value was -0.523; for B13, 0.666; for B14, 0.456.

The values are drawn from the supplement of paper PMC12645437, “Orthogonal IMiD-Degron Pairs Induce Selective Protein Degradation in Cells” (ACS Chemical Biology, 2025).
